Targets include SHP2 C-SH2 domain E139D; SHP2 N-SH2 domain L43F; SHP2 N-SH2 domain T42A; SHP2 N-SH2 domain T52S.
Common to all, as to assay: enrichment score (SH2-bound / input frequency) (ratio); bacterial display of known human phosphotyrosine sites (pTyr-Var adds point mutants) read by sequencing; higher = stronger binding; tyrosines were phosphorylated by kinases first
Common to all, as to details: peptide library: pTyr-Var

Experiment [1] concerns the target SHP2 C-SH2 domain wild-type.
Experiment [2] deals with SHP2 N-SH2 domain wild-type.

This note sets out measurements from the supplement of paper PMC10369915.

The other results are listed elsewhere or left out. Rule as the data show it: active = 3.2 or more and inactive = the rest. Most of these values are background signal.
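Also: displayed peptides selected on beads carrying the immobilized SH2 domain, with library peptides lacking any tyrosine serving as negative controls.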

As for LRAGVYHEKDQ [DNM2_Y626_P627H], the enrichment score with SHP2 C-SH2 domain E139D is inactive: 1.2; in experiment [1], inactive: 1.34; with SHP2 N-SH2 domain L43F, inactive: 1; with SHP2 N-SH2 domain T42A, inactive: 1.19; in the experiment with SHP2 N-SH2 domain T52S it was inactive: 1.07; in experiment [2], inactive: 1.31.
Consider EQSGSYIWVPA [DLG1_Y895], for which the enrichment score in the experiment with SHP2 C-SH2 domain E139D is inactive: 0.811; in experiment [1], inactive: 0.861; in the experiment with SHP2 N-SH2 domain L43F, inactive: 0.72; in the experiment with SHP2 N-SH2 domain T42A, inactive: 0.783; with SHP2 N-SH2 domain T52S, inactive: 0.723; in experiment [2], inactive: 0.666.
As for IVLEKYKLLPE [DHFR_Y157_D153V], the enrichment score with SHP2 C-SH2 domain E139D was inactive: 1.38; in experiment [1], inactive: 1.45; in the experiment with SHP2 N-SH2 domain L43F, inactive: 1.47; with SHP2 N-SH2 domain T42A it was inactive: 1.18; in the experiment with SHP2 N-SH2 domain T52S, inactive: 1.37; in experiment [2], inactive: 1.31.
As for KIIATYRLCSE [DNAH3_Y1586_V1583I], the enrichment score with SHP2 C-SH2 domain E139D was inactive: 0.77; in experiment [1] it was inactive: 0.905; with SHP2 N-SH2 domain L43F it was inactive: 0.726; with SHP2 N-SH2 domain T42A, inactive: 0.819; with SHP2 N-SH2 domain T52S it was inactive: 0.687; in experiment [2], inactive: 0.935.
As to RIVTTYIRERE [DNM2_Y463], the enrichment score with SHP2 C-SH2 domain E139D was inactive: 0.235; in experiment [1], inactive: 0.245; with SHP2 N-SH2 domain L43F, inactive: 0.201; with SHP2 N-SH2 domain T42A, inactive: 0.214; with SHP2 N-SH2 domain T52S, inactive: 0.201; in experiment [2] it was inactive: 0.199.
On to SLRAHYDTPRS [DOK7_Y405], for which the enrichment score is inactive: 0.508 in the experiment with SHP2 C-SH2 domain E139D; inactive: 0.6 in experiment [1]; inactive: 0.57 with SHP2 N-SH2 domain L43F; inactive: 0.545 with SHP2 N-SH2 domain T42A; inactive: 0.428 with SHP2 N-SH2 domain T52S; inactive: 0.612 in experiment [2].
Consider VIECSYTSADG [DHCR7_Y382], for which the enrichment score with SHP2 C-SH2 domain E139D was inactive: 0.885; in experiment [1], inactive: 0.972; with SHP2 N-SH2 domain L43F, inactive: 0.748; with SHP2 N-SH2 domain T42A, inactive: 0.657; with SHP2 N-SH2 domain T52S it was inactive: 0.735; in experiment [2], inactive: 1.04.
For HELFVYKCDEN [DOCK3_Y548_YF], the enrichment score was inactive: 1.01 with SHP2 C-SH2 domain E139D; inactive: 1.06 in experiment [1]; inactive: 1.22 with SHP2 N-SH2 domain L43F; inactive: 0.925 in the experiment with SHP2 N-SH2 domain T42A; inactive: 0.934 in the experiment with SHP2 N-SH2 domain T52S; inactive: 1.22 in experiment [2].
As to VIEFSYTSADG [DHCR7_Y382_C380Y_YF], the enrichment score in the experiment with SHP2 C-SH2 domain E139D was inactive: 1.13; in experiment [1], inactive: 0.888; in the experiment with SHP2 N-SH2 domain L43F, inactive: 1.04; in the experiment with SHP2 N-SH2 domain T42A, inactive: 0.943; with SHP2 N-SH2 domain T52S, inactive: 0.992; in experiment [2], inactive: 1.21.
As for NSIGNYYKPWF [DHCR24_Y299], the enrichment score is inactive: 1.2 with SHP2 C-SH2 domain E139D; inactive: 1.88 in experiment [1]; active: 4.59 with SHP2 N-SH2 domain L43F; active: 5.3 in the experiment with SHP2 N-SH2 domain T42A; active: 5.99 with SHP2 N-SH2 domain T52S; inactive: 1.83 in experiment [2].
Regarding KIVFVYVKKRS [DNAI2_Y7_E2K_YF], the enrichment score with SHP2 C-SH2 domain E139D is inactive: 1.59; in experiment [1] it was inactive: 1.36; in the experiment with SHP2 N-SH2 domain L43F it was inactive: 1.58; with SHP2 N-SH2 domain T42A, inactive: 1.26; in the experiment with SHP2 N-SH2 domain T52S, inactive: 1.52; in experiment [2] it was inactive: 1.25.
Turning to FFTEEYVRAHP [DOCK2_Y1555_D1558A], the enrichment score in the experiment with SHP2 C-SH2 domain E139D is inactive: 1.17; in experiment [1], inactive: 1.34; with SHP2 N-SH2 domain L43F it was inactive: 1.02; with SHP2 N-SH2 domain T42A it was inactive: 0.949; in the experiment with SHP2 N-SH2 domain T52S it was inactive: 1.12; in experiment [2], inactive: 1.2.
HELYVYKCDEN [DOCK3_Y548]: the enrichment score in the experiment with SHP2 C-SH2 domain E139D is inactive: 0.662; in experiment [1], inactive: 0.541; in the experiment with SHP2 N-SH2 domain L43F, inactive: 0.419; with SHP2 N-SH2 domain T42A it was inactive: 0.588; with SHP2 N-SH2 domain T52S, inactive: 0.46; in experiment [2], inactive: 0.405.
Turning to VIERSYTSADG [DHCR7_Y382_C380R], the enrichment score was inactive: 0.494 with SHP2 C-SH2 domain E139D; inactive: 0.472 in experiment [1]; inactive: 0.531 with SHP2 N-SH2 domain L43F; inactive: 0.386 with SHP2 N-SH2 domain T42A; inactive: 0.386 with SHP2 N-SH2 domain T52S; inactive: 0.459 in experiment [2].
Consider EKEKEYMLPLD [DNM2_Y563_K562E], for which the enrichment score with SHP2 C-SH2 domain E139D was inactive: 0.665; in experiment [1], inactive: 0.645; with SHP2 N-SH2 domain L43F, inactive: 0.695; with SHP2 N-SH2 domain T42A, inactive: 0.622; with SHP2 N-SH2 domain T52S, inactive: 0.622; in experiment [2], inactive: 0.742.
With RKLASYQSCLL [DHX37_Y1080_R1081Q], the enrichment score with SHP2 C-SH2 domain E139D is inactive: 0.833; in experiment [1], inactive: 1.04; with SHP2 N-SH2 domain L43F, inactive: 0.666; with SHP2 N-SH2 domain T42A, inactive: 0.786; with SHP2 N-SH2 domain T52S, inactive: 0.67; in experiment [2], inactive: 0.948.
With MDQAEYQAKIQ [DHX58_Y518_R523Q], the enrichment score in the experiment with SHP2 C-SH2 domain E139D is inactive: 0.452; in experiment [1], inactive: 0.517; in the experiment with SHP2 N-SH2 domain L43F it was inactive: 0.53; with SHP2 N-SH2 domain T42A it was inactive: 0.646; with SHP2 N-SH2 domain T52S, inactive: 0.477; in experiment [2] it was inactive: 0.545.
In the case of DQIDTYELSGG [DNM1_Y354], the enrichment score with SHP2 C-SH2 domain E139D was inactive: 0.541; in experiment [1], inactive: 0.353; in the experiment with SHP2 N-SH2 domain L43F, inactive: 0.755; with SHP2 N-SH2 domain T42A, inactive: 0.732; with SHP2 N-SH2 domain T52S, inactive: 0.265; in experiment [2], inactive: 0.296.
